Several values for one entry are separate records, joined by “and”; a condition that tells them apart may be missing. Identical values can stand only once. The inconclusive results got no clear call from the source; some entries with a clear call stand among them for comparison. Potencies beside an inconclusive call are fits to weak or partial responses and may not hold up. Activity calls are given as the source filed them. The call rests on the fitted dose curve; in most records, active means well fitted inhibition curve with a large enough effect; inconclusive means small, poorly fitted or top-dose-only effect; inactive means no such curve, though single readings can be large or run the other way.
Experiment: Primary qHTS for small molecule stabilizers of the endoplasmic reticulum resident proteome: Secreted ER Calcium Modulated Protein (SERCaMP) assay (AID 1508630)
Conditions: SH-SY5Y GLuc-SERCaMP (Gaussia luciferase released on ER calcium loss) secretion, thapsigargin, luminescence; activity change, negative = inhibition: at 38.4 µM (top of the series)
How it was run: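 GLuc-SERCaMP-expressing SH-SY5Y cells, pretreated 16 h with compound, are challenged with thapsigargin to empty ER calcium stores; after 4 h, coelenterazine is added directly to the medium and luminescence is imaged.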
On the % scale 0 is the no-effect control and ±100 the full control effect; potency means the concentration at half of the fitted maximal effect; tags describe the fitted curve by direction and shape.

SMILES | activity change, negative = inhibition | Potency
CC(O)=C(C#N)C(=O)Nc1cc(Br)ccc1Br | inactive: 0% | –
CC(=O)NC1CCSC1=O (configuration not stated) | – | inconclusive: 31.6 µM [inhibitor, partial curve, poor fit]
CCC1(CC)C(=O)C=CNC1=O | – | inconclusive: 25.1 µM [inhibitor, single point]
CN1[C@H]2CC(O)C[C@H]1[C@H]1O[C@H]12 (some centres not stated) | inactive: 97% | –
COc1cc2cc(c1Cl)N(C)C(=O)C[C@H](OC(=O)C(C)C)[C@]1(C)O[C@H]1[C@H](C)[C@@H]1C[C@@](O)(NC(=O)O1)[C@H](OC)C=CC=C(C)C2 | inactive: 68.9% | –
COC(=O)[C@@H](N)CCCN=C(N)N[N+](=O)[O-] | – | inconclusive: 10 µM [inhibitor, partial curve, poor fit]
COC(=O)[C@@H](N)CCCN/C(N)=N/[N+](=O)[O-] | – | inconclusive: 28.2 µM [inhibitor, single point]
CCN[C@@H](C)Cc1ccccc1 | – | inconclusive: 56.2 µM [inhibitor, single point]
C#CCN[C@H](C)Cc1ccccc1 | – | inconclusive: 2.24 µM [inhibitor, full curve, poor fit]
CN1c2ccccc2C(NCCCCCCC(=O)O)c2ccc(Cl)cc2S1(=O)=O (configuration not stated) | – | inconclusive: 35.5 µM [inhibitor, partial curve, poor fit]
Nc1ccccc1C(=O)OCC(O)CO (configuration not stated) | – | inconclusive: 31.6 µM [inhibitor, partial curve, poor fit]
Nc1ccc(Sc2ccc(N)cc2)cc1 | inactive: -29.6% [at 76.3 µM] | –
CN(C)C(=O)Oc1cc(OC(=O)N(C)C)cc(C(O)CNC(C)(C)C)c1 (configuration not stated) | inactive: 24.2% | –
CC(=O)Nc1cc([As](=O)(O)O)ccc1O | – | inconclusive: 1 µM [inhibitor, full curve]
O=C(CCCN1CCC(n2c(=O)[nH]c3ccccc32)CC1)c1ccc(F)cc1 | – | inconclusive: 20 µM [inhibitor, single point]
CCC(COC(=O)c1cc(OC)c(OC)c(OC)c1)(c1ccccc1)N(C)C (configuration not stated) | inactive: -26% | –
c1ccc(CN2CCNCC2)cc1 | – | inconclusive: 112 µM [inhibitor, single point]
CC(C)c1cccc(C(C)C)c1O | – | inactive and inconclusive: 10 µM [inhibitor, partial curve, poor fit]
C#CCN(C)[C@H](C)Cc1ccccc1 | – | inactive

SMILES | activity change, negative = inhibition | Potency
CC(=O)O[C@@]12CO[C@H]1C[C@H](O)[C@@]1(C)C(=O)[C@H](O)C3=C(C)[C@@H](O)C[C@@](O)([C@@H](OC(=O)c4ccccc4)[C@@H]21)C3(C)C | inactive: 0% | –
COc1ccc(CN2CCNCC2)c(OC)c1OC | – | inconclusive: 31.6 µM [inhibitor, partial curve, poor fit]
CC(Cc1ccc(O)cc1)NCC(O)c1cc(O)cc(O)c1 (configuration not stated) | – | inconclusive: 5.01 µM [inhibitor, full curve, poor fit] and inactive
O=P1(NCCCl)OCCCN1CCCl (configuration not stated) | – | inconclusive: 10 µM [inhibitor, partial curve, poor fit] and inconclusive: 11.2 µM [inhibitor, partial curve, poor fit]
CC1COC2(c3ccccc3Cl)c3cc(Cl)ccc3NC(=O)CN12 (configuration not stated) | inactive: -27.2% | –
CC(CCc1ccccc1)NC(C)C(O)c1ccc(O)cc1 (configuration not stated) | – | inconclusive: 25.1 µM [inhibitor, single point] and inconclusive: 28.2 µM [inhibitor, single point]
CCN[C@H](C)Cc1cccc(C(F)(F)F)c1 | inactive: -19.3% [at 76.3 µM] | –
O=C(N[C@H]1CN2CCC1CC2)c1ccc(Cl)cc1 | – | inactive
COc1ccc(C(c2ccc(OC)cc2)C(Cl)(Cl)Cl)cc1 | – | inconclusive: 100 µM [inhibitor, full curve]
CN1C(=O)[C@@H](NC(=O)c2cc3ccccc3[nH]2)N=C(c2ccccc2)c2ccccc21 | – | inconclusive: 28.2 µM [inhibitor, single point] and inconclusive: 12.6 µM [inhibitor, single point]
O=C1C(I)=CC(=C(c2cc(I)c(O)c(I)c2)c2ccccc2C(=O)O)C=C1I | – | inconclusive: 11.2 µM [inhibitor, single point]
Cc1c(C(=O)c2cccc3ccccc23)c2cccc3c2n1[C@H](CN1CCOCC1)CO3 | – | inconclusive: 2.24 µM [inhibitor, full curve, poor fit]
Clc1ccc(C(OCCN2CCCCC2)c2ccccc2)cc1 (configuration not stated) | – | inconclusive: 25.1 µM [inhibitor, single point]
C[C@H](CN1CCOCC1)C(C(=O)N1CCCC1)(c1ccccc1)c1ccccc1 | – | inconclusive: 31.6 µM [inhibitor, partial curve, poor fit]
O=c1[nH]oc2c1CCNC2 | inconclusive: -31.8% [inhibitor] | –
Oc1ccc(Cl)cc1 | – | inconclusive: 31.6 µM [inhibitor, single point]
CC(C)(C)[C@]1(O)C[C@@H]2OC(=O)C[C@@]23C(=O)O[C@@H]2OC(=O)[C@H](O)C213 (some centres not stated) | – | inconclusive: 29.8 µM [inhibitor, single point]
COc1cc(C[C@@H](C)N)c(OC)cc1C | inactive: -13.5% [at 76.3 µM] | –

From PubChem BioAssay (NCATS)
